The supplement of paper PMC11417369
± gives the standard deviation of the averaged measurements. The list shows a part of the results.

system: PfAP2-G AP2 domain (GST-tagged); test: gcPBM binding intensity (ln(normalized median fluorescence intensity)); higher = stronger DNA binding
How it was run: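 The binding buffer was 1× PBS containing 1% milk, 0.2 mg/ml BSA, 0.5% salmon testes DNA and 0.03% Triton X-100. In it, GST-tagged P. falciparum DNA-binding domains expressed in E. coli were applied for 1 h to an Agilent 4 × 180k array of primer-extended double-stranded 36-bp intergenic genomic probes plus negative controls. Binding intensity, read with Alexa488 anti-GST antibody and a 488 nm scan, is the highest Masliner-normalised natural-log median intensity across replicate spots of either probe orientation.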

Sequence	gcPBM binding intensity (ln)
ATACACATTCTTCCGACATAATAAGAAAAAGAAAAA [CACACA_negctrl_site9]	9.97 ± 0.33
AAAATGTATTCTCTCATGCACACTTTCTTTAAGGGA [CACACA_site2196]	10.04 ± 0.092
TGTAGATTTTGTAACACACACATATAAATACCTATA [CACACA_site7183]	10.2 ± 0.16
TTATTTATATTTTTTTGTACACATATTGTATACATA [XGTACX_site1178]	11.5 ± 0.86
CATATTTTATTATATACATGCAATTTTAATATATAT [TGCATGCA_site544]	9.96 ± 0.18
CACCCCCACAGACACACACACACACCGATATATATA [CACACA_site8010]	11 ± 0.58
TATAATTTAACGACATGTACATATAAAAAAATATTT [XGTACX_site2395]	11.3 ± 0.61
AAATATAATAACGAACGTACTTATTATAATTTGTAA [XGTACX_site2342]	10.9 ± 0.45
ATCTCTTATATATTCACACACATATATATAATTATA [CACACA_site1502]	10.08 ± 0.071
TACATGAATATTTATACATGCACACTAAAATAAAGA [TGCATGCA_site611]	10.06 ± 0.035
TATTTACATACAAAATGTACAAAAATATATTTTTTT [XGTACX_site888]	10.6 ± 0.35
ATATATATTTAATGTTGTACATAAAAAATATATAAA [XGTACX_site7774]	11.3 ± 1
TATTTATATATATGATGTACATAAGGTGTAATGTTA [XGTACX_site5591]	11.2 ± 0.62
AAATAATACAAGGGCTGTACATAAAAAGGAGTATAT [XGTACX_site839]	11.3 ± 0.52
ATTTTAAAAAGGATAGTGCAAATGTTAAAATAGGAC	10.5 ± 0.26
ATAGGTAAAAAGTATACACACGTTGACACATTCTTT [CACACA_site4794]	10.21 ± 0.064
AGAAAAAAAAAAAGTACACACATATAACATATAGAT [CACACA_site7410]	11.6 ± 0.86
ATTTATTTTCTGTGTACACATATGTTGGGTATTTTA [CACACA_site5902]	11.7 ± 0.96
GTATATATCCCAAAATGTACATAATTTATTATTTAT [XGTACX_site2842]	11 ± 0.28
GGTCTTTTTTTCAAAAGTACATAAATAAAAAAGGTT [XGTACX_site2894]	11.6 ± 1.1
TTGTATGTAAAAAAGTGTACATGAGTGATTATATAA [XGTACX_site8166]	11.3 ± 0.69
TAAATTTAAAAATCTGCACACATTTAAAAAAAAAAA [CACACA_site2515]	10 ± 0.26
ATTACTAAAAAATATAAACACACATATATTTTACAT [CACACA_site8633]	9.84 ± 0.085

Sequence	gcPBM binding intensity (ln)
CAAAAGGATGTGGGATGTACATATGAAAAAAAAAAA [XGTACX_site8059]	11.1 ± 0.57
TTTTATTTATAATACTCACACATTTATATTACATAT [CACACA_site6000]	10.2 ± 0.17
CTTTTTTTCTTTCCAAGTACTAAATTCATACAAATT [XGTACX_site2605]	10.8 ± 0.51
AATAAAATAATAAAAGCACACAAGAATACACCCAAA [CACACA_site7919]	10.6 ± 0.45
TTTAACGAATAAAAATGTACAAATTTATACATTTAT [XGTACX_site2805]	10.7 ± 0.43
GAAAATTTAAAAAGAGTGCATTATATGTTTGAATAT [GTGCAC_site9564]	9.93 ± 0.11
ATTTCTAAATGTTGGTGTACGTTTTTTTATAACCTT [XGTACX_site1752]	11.6 ± 1.1
AGTGTATGTATATAAACACACATACATATTTATAAC [CACACA_site6777]	9.915 ± 0.021
AAAAAAAAGAAAGAAAGTACAAATTATAAAATGAAC [XGTACX_site860]	11 ± 0.61
TAAATTAAAAAACACACACACAAAAAAAAAAAAAAA [CACACA_site2263]	9.77 ± 0.67
AATAAATGGAATGTCACACATATATATATATATATA [CACACA_site4869]	10.1 ± 0.35
ATTATTTAAAAAAAATGTACATAATAAATATGAACG [XGTACX_site4010]	11.4 ± 0.77
TGAAGGATATATTCCGTGCACATATAAATATATACA	10.2 ± 0.3
AACATGTTAACTAAATGTACACACCTATGTTGATGT [XGTACX_site3777]	11.1 ± 0.68
CAGGTGCACTATATTACACACGCTTCTTTTTTTTTA [CACACA_site2069]	10.6 ± 0.6
TTGATATTATTGTATAAACATAATAGAGATAAAGAG [TGCATGCA_negctrl_site455]	10.3 ± 0.3
TATATACATATATACACACACATATATATATATATA [CACACA_site2805]	10 ± 0.29
GGAAAACACAAAAACTGTACATTTATTCAACATATA [XGTACX_site5831]	11 ± 0.58
TAAGAACTATTCAGTAGTACCTATATGGATTACTAA [XGTACX_site4278]	10.8 ± 0.5
ATTGATATTGTATAATGTACAGGAAAAAAAAAAAAA [XGTACX_site526]	10.8 ± 0.83
TGAAAGAATGTTAATAGTACACACAATTATTATATA [XGTACX_site7936]	11.2 ± 0.73
TTCTTTATTTTTTCTACACACATTATGTATTCAAAG [CACACA_site3527]	10.2 ± 0.049
TGAAAGAACCTGATTACACACATAAGTTATAAATAT [CACACA_site6165]	9.975 ± 0.049

Sequence	gcPBM binding intensity (ln)
AAAATTTAAATAGGAAGTACGTTCACTAAGAAAATA [XGTACX_site6546]	11 ± 0.57
AATCTCAGAATATACTGTACTTTAAGAAAAAAAAAA [XGTACX_site110]	11.4 ± 0.71
AATATATATTTGTGTACACATTATATATATATATAT [CACACA_site6103]	11.9 ± 1.1
AAAATGTGCATATTTGCACACTTCAATATATATATA [CACACA_site1791]	10.1 ± 0.41
CATAAATCAGCCATAACACACATACCTATATACATA [CACACA_site6324]	10.03 ± 0.092
AAATATTTTGCATACACATGCAAATATTTTTTACAT [TGCATGCA_site554]	9.8 ± 0.11
AATATAAAAAGGCACACACACAAAAAAAAAAAAAAA [CACACA_site896]	9.99 ± 0.45
AAATAAAGATATATATATATATATATATATAATTTT [CACACA_negctrl_site30]	9.495 ± 0.007
ATAATAACTGATAAATGTACATATAAATTTTATGAT [XGTACX_site195]	11.1 ± 0.66
ATAATTTAAAAACATTGTACATTAATATATATGTAT [XGTACX_site8970]	10.8 ± 0.59
AGGATATGCGGACACACACACATATATATATATATA [CACACA_site5247]	11.3 ± 1
TTTATATTTCTTCATCGTACACATAAAAAAAAAAAA [XGTACX_site3244]	11.2 ± 0.95
ATACTCACGAAACACACACACAATATATATATATAT [CACACA_site4136]	10.1 ± 0.25
TTTTATATTTTAAGAGTGCATTTTATATCTTTTTCT	9.97 ± 0.014
GAAAATATTAAATGAAGTACAATATTTATGTTACTT [XGTACX_site8737]	11.2 ± 0.75
AAGAATTATATTAATAGTACATATATATTAATTTAT [XGTACX_site5713]	10.8 ± 0.57
TTATTTATGAAGTATACACACAATATAGATTTATAT [CACACA_site6703]	9.93 ± 0.057
TTTAAAATTATAAGGATTAAAAAAAAAAAAAATAAA [CACACA_negctrl_site114]	9.72 ± 0.13
AAGACATTTTTTTGTTGTACGTCTTCATTTATTGTA [XGTACX_site2890]	11.5 ± 0.87
TTTTGTTATTATAAATAGTAACATTTGTGAATATAT [TGCATGCA_negctrl_site132]	9.9 ± 0.26
ATAAATTTTTAAACAGCACACATAAATATAATATAT [CACACA_site8691]	10.06 ± 0.064
ATAATGAAAACAAGCACACATACATAAAATAAAATA [CACACA_site3257]	10.1 ± 0.11
ATGGAAGGATAATAAAAACCTTTACCTTTCTGTTTA [GTGCAC_negctrl_site380]	9.71 ± 0.17

Sequence	gcPBM binding intensity (ln)
TCTACAATTTTAATTACACACTATAAAAAAGAAAGA [CACACA_site5624]	9.965 ± 0.078
TAGCTTATAAGATATGCACACACAACACTTACAAAA [CACACA_site8174]	10.2 ± 0.22
AATATTACAATTTGGTGTACAGGTGCACATGCCTCA [XGTACX_site1730]	11.5 ± 0.93
ATATTATTTTAAAGTACACACATATATTAAGATATA [CACACA_site5306]	11.4 ± 1
ATAGGTTCCCAAAATGCACACCAATGAAATTATTTA [CACACA_site8081]	10.6 ± 0.45
CAAGCTTTTTCCTTTACACACATTAGTTATTTATAT [CACACA_site6781]	10 ± 0.042
ATGATTTCACAAGACACACACATACAAATTTATATA [CACACA_site3909]	10.2 ± 0.21
TATTTTATATTTTATGCACACTTATAAGAAATATGT [CACACA_site5647]	10.3 ± 0.19
TTAATATATTATCTGGTGCATAAACACGTTATACCT	10.11 ± 0.085
CAGTATTACATGAGGACACACACAAAAAAAATATAT [CACACA_site8156]	11.3 ± 0.86
ATATATATATATATATGTACGTATTCATAAACAACA [XGTACX_site4282]	11.4 ± 0.89
TATTAATATGGTAATACACACTAATATACTTTTGTT [CACACA_site6860]	10.04 ± 0.021
TAAGTATATTTTATATGTACTTATATATTTAATTTT [XGTACX_site4615]	11.3 ± 0.79
CTGTAAAAAATATAAACACACATAGAGATATATAAA [CACACA_site6292]	9.885 ± 0.049
TTTAATGTTACTCCTTGTACACAAAATAGTGTTATA [XGTACX_site8416]	11.3 ± 0.9
TATTATATATATATATGTACATATATATGCTAAAAA [XGTACX_site5297]	11.1 ± 0.6
GATGTTGCAAAATTCTGTACATATAAATGTATACAT [XGTACX_site5009]	11 ± 0.42
ATTCTATTATAATACACACCCAAATATTAAAAAGAT [CACACA_site2960]	10.25 ± 0.085
CCACATGATATGATTACACACATATATATATTTACA [CACACA_site164]	9.98 ± 0.057
ATACATATGTATATTTGTACATATTAGACAATCTTA [XGTACX_site6706]	10.6 ± 0.39
ATTAGTAAATTTATATGTACACATTGTTATTTTATA [XGTACX_site1177]	11.5 ± 0.99
